# Reference: the supplement of paper PMC8728848
# The other results are listed elsewhere or left out.
# B1: Langerin CRD (Homo sapiens), Q9UJ71 (protein)
# chain: QVVSQGWKYFKGNFYYFSLIPKTWYSAEQFCVSRNSHLTSVTSESEQEFLYKTAGGLIYWIGLTKAGMEGDWSWVDDTPFNKVQSVRFWIPGEPNNAGNNEHCGNIKAPSLQAWNDAPCDKTFLFICKRPYVPSEPSAWSHPQFEK
# Legend:
# Experiment in all cases: glycan array binding signal (z-score within array); higher = stronger binding
# Settings in all cases: glycan notation: IUPAC condensed, linker removed
# [1] = target: Fuc(a1-3)[GalNAc(b1-4)]GlcNAc
# Procedure, shortened: (§1)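 Glycan array data came from 3228 arrays in the Consortium for Functional Glycomics database, and only arrays with an available protein sequence were kept. Glycan names were put into IUPAC-condensed notation, and columns mapping to the same glycan were averaged. The binding signal is a within-array Z-score, averaged across arrays of one protein sequence run at different concentrations or buffers and across linkers. A negative Z-score can be read as non-binding.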
# Fuc(a1-4)GlcNAc = target: Fuc(a1-4)GlcNAc
# Procedure, shortened: as §1
# Fuc(b1-3)GlcNAc = target: Fuc(b1-3)GlcNAc
# Procedure, shortened: as §1
# Gal(a1-2)Gal = target: Gal(a1-2)Gal
# Procedure, shortened: as §1
# Gal(a1-3)Gal = target: Gal(a1-3)Gal
# Procedure, shortened: as §1
# Gal(a1-3)Gal(b1-3)GlcNAc = target: Gal(a1-3)Gal(b1-3)GlcNAc
# Procedure, shortened: as §1
# Gal(a1-3)Gal(b1-4)Glc = target: Gal(a1-3)Gal(b1-4)Glc
# Procedure, shortened: as §1
# Gal(a1-3)Gal(b1-4)GlcNAc = target: Gal(a1-3)Gal(b1-4)GlcNAc
# Procedure, shortened: as §1
# [2] = target: Gal(a1-3)Gal(b1-4)[Fuc(a1-3)]GlcNAc
# Procedure, shortened: as §1
# Gal(a1-3)GalNAc = target: Gal(a1-3)GalNAc
# Procedure, shortened: as §1
# [3] = target: Gal(a1-3)[Gal(a1-4)]Gal(b1-4)GlcNAc
# Procedure, shortened: as §1
# Gal(a1-4)Gal(b1-4)Glc = target: Gal(a1-4)Gal(b1-4)Glc
# Procedure, shortened: as §1
# Gal(a1-4)Gal(b1-4)GlcNAc = target: Gal(a1-4)Gal(b1-4)GlcNAc
# Procedure, shortened: as §1
# Gal(a1-4)GlcNAc = target: Gal(a1-4)GlcNAc
# Procedure, shortened: as §1
# Gal(a1-6)Glc = target: Gal(a1-6)Glc
# Procedure, shortened: as §1
# Gal(b1-2)Gal = target: Gal(b1-2)Gal
# Procedure, shortened: as §1
# Gal(b1-3)Gal = target: Gal(b1-3)Gal
# Procedure, shortened: as §1
# Gal(b1-3)Gal(b1-4)GlcNAc = target: Gal(b1-3)Gal(b1-4)GlcNAc
# Procedure, shortened: as §1
# Gal(b1-3)GalNAc = target: Gal(b1-3)GalNAc
# Procedure, shortened: as §1
# [4] = target: Gal(b1-3)GalNAc(b1-3)Gal(a1-4)Gal(b1-4)Glc
# Procedure, shortened: as §1
# [5] = target: Gal(b1-3)GalNAc(b1-4)Gal(b1-4)Glc
# Procedure, shortened: as §1
# [6] = target: Gal(b1-3)GalNAc(b1-4)[Neu5Ac(a2-3)]Gal(b1-4)Glc
# Procedure, shortened: as §1
# Gal(b1-3)GlcNAc = target: Gal(b1-3)GlcNAc
# Procedure, shortened: as §1
# [7] = target: Gal(b1-3)GlcNAc(b1-2)Man(a1-3)[Gal(b1-3)GlcNAc(b1-2)Man(a1-6)]Man(b1-4)GlcNAc(b1-4)GlcNAc
# Procedure, shortened: as §1
# [8] = target: Gal(b1-3)GlcNAc(b1-3)Gal(b1-3)GlcNAc
# Procedure, shortened: as §1
# [9] = target: Gal(b1-3)GlcNAc(b1-3)Gal(b1-4)Glc
# Procedure, shortened: as §1
# [10] = target: Gal(b1-3)GlcNAc(b1-3)Gal(b1-4)GlcNAc
# Procedure, shortened: as §1
# [11] = target: Gal(b1-3)[Fuc(a1-4)]GlcNAc
# Procedure, shortened: as §1
# [12] = target: Gal(b1-3)[Fuc(a1-4)]GlcNAc(b1-3)Gal(b1-3)[Fuc(a1-4)]GlcNAc
# Procedure, shortened: as §1
# [13] = target: Gal(b1-3)[Fuc(a1-4)]GlcNAc(b1-3)Gal(b1-4)GlcNAc
# Procedure, shortened: as §1
# [14] = target: Gal(b1-3)[Fuc(a1-4)]GlcNAc(b1-3)Gal(b1-4)[Fuc(a1-3)]GlcNAc
# Procedure, shortened: as §1
# [15] = target: Gal(b1-3)[GlcNAc(b1-6)]GalNAc
# Procedure, shortened: as §1
# [16] = target: Gal(b1-3)[Neu5Ac(a2-6)]GalNAc
# Procedure, shortened: as §1
# [17] = target: Gal(b1-3)[Neu5Ac(a2-6)]GlcNAc(b1-6)Gal(b1-4)Glc
# Procedure, shortened: as §1
# [18] = target: Gal(b1-3)[Neu5Ac(b2-6)]GalNAc
# Procedure, shortened: as §1
# [19] = target: Gal(b1-4)GalNAc(a1-3)[Fuc(a1-2)]Gal(b1-4)GlcNAc
# Procedure, shortened: as §1
# [20] = target: Gal(b1-4)GalNAc(b1-3)[Fuc(a1-2)]Gal(b1-4)GlcNAc
# Procedure, shortened: as §1
# Gal(b1-4)Glc = target: Gal(b1-4)Glc
# Procedure, shortened: as §1
# Gal(b1-4)Glc6S = target: Gal(b1-4)Glc6S
# Procedure, shortened: as §1
# Gal(b1-4)GlcNAc = target: Gal(b1-4)GlcNAc
# Procedure, shortened: as §1
# [21] = target: Gal(b1-4)GlcNAc(a1-6)Gal(b1-4)GlcNAc
# Procedure, shortened: as §1
# [22] = target: Gal(b1-4)GlcNAc(b1-2)Man(a1-3)[Gal(b1-4)GlcNAc(b1-2)Man(a1-6)]Man(b1-4)GlcNAc(b1-4)GlcNAc
# Procedure, shortened: as §1
# [23] = target: Gal(b1-4)GlcNAc(b1-3)Gal(b1-3)GlcNAc
# Procedure, shortened: as §1
# [24] = target: Gal(b1-4)GlcNAc(b1-3)Gal(b1-4)Glc
# Procedure, shortened: as §1
# [25] = target: Gal(b1-4)GlcNAc(b1-3)Gal(b1-4)GlcNAc
# Procedure, shortened: as §1
binder,measurement,setting,value
B1,glycan array binding signal (z-score),[1],-0.442
same,glycan array binding signal (z-score),Fuc(a1-4)GlcNAc,-0.367
same,glycan array binding signal (z-score),Fuc(b1-3)GlcNAc,0.05
same,glycan array binding signal (z-score),Gal(a1-2)Gal,-0.41
same,glycan array binding signal (z-score),Gal(a1-3)Gal,-0.413
same,glycan array binding signal (z-score),Gal(a1-3)Gal(b1-3)GlcNAc,-0.623
same,glycan array binding signal (z-score),Gal(a1-3)Gal(b1-4)Glc,-0.487
same,glycan array binding signal (z-score),Gal(a1-3)Gal(b1-4)GlcNAc,-0.613
same,glycan array binding signal (z-score),[2],-0.306
same,glycan array binding signal (z-score),Gal(a1-3)GalNAc,-0.466
same,glycan array binding signal (z-score),[3],-0.304
same,glycan array binding signal (z-score),Gal(a1-4)Gal(b1-4)Glc,-0.395
same,glycan array binding signal (z-score),Gal(a1-4)Gal(b1-4)GlcNAc,-0.479
same,glycan array binding signal (z-score),Gal(a1-4)GlcNAc,-0.292
same,glycan array binding signal (z-score),Gal(a1-6)Glc,-0.427
same,glycan array binding signal (z-score),Gal(b1-2)Gal,-0.065
same,glycan array binding signal (z-score),Gal(b1-3)Gal,-0.398
same,glycan array binding signal (z-score),Gal(b1-3)Gal(b1-4)GlcNAc,-0.488
same,glycan array binding signal (z-score),Gal(b1-3)GalNAc,-0.451
same,glycan array binding signal (z-score),[4],-0.482
same,glycan array binding signal (z-score),[5],-0.552
same,glycan array binding signal (z-score),[6],-0.617
same,glycan array binding signal (z-score),Gal(b1-3)GlcNAc,-0.397
same,glycan array binding signal (z-score),[7],-0.416
same,glycan array binding signal (z-score),[8],-0.466
same,glycan array binding signal (z-score),[9],-0.48
same,glycan array binding signal (z-score),[10],-0.492
same,glycan array binding signal (z-score),[11],-0.279
same,glycan array binding signal (z-score),[12],-0.551
same,glycan array binding signal (z-score),[13],-0.566
same,glycan array binding signal (z-score),[14],-0.145
same,glycan array binding signal (z-score),[15],0.442
same,glycan array binding signal (z-score),[16],-0.499
same,glycan array binding signal (z-score),[17],-0.538
same,glycan array binding signal (z-score),[18],-0.49
same,glycan array binding signal (z-score),[19],-0.316
same,glycan array binding signal (z-score),[20],1.18
same,glycan array binding signal (z-score),Gal(b1-4)Glc,-0.338
same,glycan array binding signal (z-score),Gal(b1-4)Glc6S,-0.294
same,glycan array binding signal (z-score),Gal(b1-4)GlcNAc,-0.18
same,glycan array binding signal (z-score),[21],-0.339
same,glycan array binding signal (z-score),[22],-0.275
same,glycan array binding signal (z-score),[23],-0.485
same,glycan array binding signal (z-score),[24],-0.492
same,glycan array binding signal (z-score),[25],-0.442
